# The campaign covered roughly 350,000 compounds. About 31,000 (8.9%) were called active. Inconclusive means that the source gave no clear call. Such entries were picked first, then a sample of the others. Calls come from the whole dose curve; as a rule, active = well fitted inhibition curve with a large enough effect; inconclusive = small, poorly fitted or top-dose-only effect; inactive = no such curve, though single readings can be large or run the other way. Where the call is inconclusive, the potency comes from a doubtful curve fit.
# Molecular target: Histone-lysine N-methyltransferase EHMT2 (Homo sapiens) (UniProt Q96KQ7)
# Test: qHTS Assay for Inhibitors of Histone Lysine Methyltransferase G9a; note: nearly all actives have a fitted effect of over 75% in size
# Details: G9a H3K9 monomethylation, AlphaScreen, 2 h; activity, negative = inhibition: at 59 µM (top of the series) unless noted
# Procedure, shortened: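 Chemiluminescent proximity detection of H3K9 monomethylation, read after 10 min bead incubation in the dark. Reaction: 20 nM G9a, 500 nM biotin-H3K9 peptide, 20 uM SAM cofactor, 2 h, room temperature, following 15 min enzyme-compound preincubation.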
# % is set by controls: 0 for no effect and ±100 for the full control effect; potency is the fitted concentration of half-maximal effect; tags give direction and shape of the fitted curve.
# Chain of UniProt Q96KQ7 (Q96KQ7 whole entry, looked up): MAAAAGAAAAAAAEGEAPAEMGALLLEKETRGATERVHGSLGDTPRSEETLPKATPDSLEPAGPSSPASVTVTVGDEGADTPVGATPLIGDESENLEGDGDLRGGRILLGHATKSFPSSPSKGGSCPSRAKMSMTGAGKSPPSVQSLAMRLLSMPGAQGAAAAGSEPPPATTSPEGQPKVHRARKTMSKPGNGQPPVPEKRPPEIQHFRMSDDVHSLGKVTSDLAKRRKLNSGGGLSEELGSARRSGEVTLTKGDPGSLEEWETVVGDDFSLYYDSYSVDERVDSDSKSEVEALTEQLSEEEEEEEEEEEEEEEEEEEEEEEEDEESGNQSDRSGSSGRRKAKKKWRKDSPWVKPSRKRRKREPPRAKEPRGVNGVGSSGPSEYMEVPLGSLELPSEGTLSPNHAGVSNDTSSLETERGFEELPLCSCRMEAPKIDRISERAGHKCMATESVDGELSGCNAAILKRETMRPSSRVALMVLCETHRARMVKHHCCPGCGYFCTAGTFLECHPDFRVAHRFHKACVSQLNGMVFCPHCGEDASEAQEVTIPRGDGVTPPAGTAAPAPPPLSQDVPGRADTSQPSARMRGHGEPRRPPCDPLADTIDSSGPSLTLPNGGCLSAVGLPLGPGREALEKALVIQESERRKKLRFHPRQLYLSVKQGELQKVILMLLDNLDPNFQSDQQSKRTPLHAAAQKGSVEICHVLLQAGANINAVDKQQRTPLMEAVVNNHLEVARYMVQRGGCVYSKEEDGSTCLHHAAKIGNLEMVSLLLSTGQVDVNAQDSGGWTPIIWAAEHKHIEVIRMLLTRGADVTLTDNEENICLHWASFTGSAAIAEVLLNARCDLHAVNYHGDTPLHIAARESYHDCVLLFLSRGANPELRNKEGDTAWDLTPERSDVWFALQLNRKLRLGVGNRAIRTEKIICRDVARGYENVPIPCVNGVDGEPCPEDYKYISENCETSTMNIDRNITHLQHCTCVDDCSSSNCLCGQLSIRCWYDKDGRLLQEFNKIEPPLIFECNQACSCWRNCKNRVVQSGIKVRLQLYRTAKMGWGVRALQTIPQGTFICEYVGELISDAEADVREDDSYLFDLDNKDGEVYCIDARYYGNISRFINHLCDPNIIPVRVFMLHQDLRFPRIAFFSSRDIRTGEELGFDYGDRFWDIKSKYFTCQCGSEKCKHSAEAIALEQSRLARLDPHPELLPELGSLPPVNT
Compound,Potency,"activity, negative = inhibition"
CCOC(=O)c1c(NC(=O)c2cc(-c3cccc(OC)c3)on2)sc2c1CCCC2,active: 8.91 µM,
Cc1noc(C)c1-c1nccc(N(C)Cc2ccco2)n1,,inactive: 11.8% [at 0.501 µM]
O=C1C=C(c2ccccc2)OC2(CCCC2)O1,"inconclusive: 20 µM [inhibitor, full curve, poor fit]",
CC(/C=N/NC(=O)c1cccs1)=C\c1ccco1,"inconclusive: 50.1 µM [inhibitor, partial curve, poor fit]",
N#C/C(=C\c1ccc(O)c(O)c1)C(=O)Nc1cccc2ncccc12,active: 8.91 µM,
O=C(CSc1n[nH]c(-c2ccncc2)n1)Nc1ccccc1,inactive,
COc1cc(/C=C2\SC(=S)N(NS(=O)(=O)c3ccc(C)cc3)C2=O)ccc1O,active: 25.1 µM,
O=C(Nc1ccc(C(F)(F)F)cc1)c1cc(-c2cccnc2)nc2ccc(Br)cc12,inactive,
COc1ccc(-c2csc3ncnc(N4CCN(S(=O)(=O)c5cccs5)CC4)c23)cc1,"inconclusive: 100 µM [inhibitor, partial curve, poor fit]",
O=C(NCc1cccc(Cl)c1)c1ccc2nc(N3CCCCC3)sc2c1,inactive,
COc1ccccc1-c1cc(-c2ccc(C)cc2)nc(SCc2nnc(-c3ccccc3)o2)c1C#N,active: 11.2 µM,
CC(C)(O)C1=NOC(c2ccccc2)C1 (stereo not drawn),"inconclusive: 4.47 µM [inhibitor, single point]",
Cc1cc(C)c(NC(=O)Cn2cnc3c(oc4ccccc43)c2=O)c(C)c1,"inconclusive: 44.7 µM [inhibitor, partial curve, poor fit]",
CCc1nnc2c(N3CCN(c4cc(Cl)ccc4C)CC3)nc3ccccc3n12,"inconclusive: 3.55 µM [inhibitor, partial curve, poor fit]",
O=C(CC1Sc2ccccc2NC1=O)NCc1ccccc1 (stereo not drawn),inactive,
CCOC(=O)N1CCN(Cc2ccccn2)CC1,active: 7.08 µM,
CC1CCN(C(=O)c2cc(-c3ccc(Br)cc3)on2)CC1,inactive,
Cc1cc(C(=O)Nc2sc3c(c2C#N)CCC(C(C)(C)C)C3)no1 (stereo not drawn),"inconclusive: 89.1 µM [inhibitor, single point]",
CCCCN(Cc1cc2cc(C)ccc2[nH]c1=O)C(=O)c1ccccn1,inactive,
CCn1c(COc2ccc3c(c2)OCO3)nnc1SCC(=O)c1ccccc1,active: 11.2 µM,
O=C1[C@@H]2CSC(c3ccc(Cl)cc3)N2C(=O)N1c1ccccc1 (stereo partly drawn),inactive,
COC(=O)C1=C(C)N(Cc2ccccc2)C(=O)N[C@H]1c1cccs1,inactive,
Cc1sc2ncn(CC(=O)Nc3cccc(S(N)(=O)=O)c3)c(=O)c2c1-c1ccccc1,"inconclusive: 44.7 µM [inhibitor, partial curve]",
COCCN1C(=O)N(c2cccc(C)c2)C(=O)C1CC(=O)Nc1ccc(OC)cc1 (stereo not drawn),inactive,
O=C(CSc1nc(O)c(C2CCCCC2)c(=O)[nH]1)Nc1ccccc1Cl,"inconclusive: 39.8 µM [inhibitor, single point]",

Compound,Potency,"activity, negative = inhibition"
COCCn1c(=S)[nH]c2ncccc2c1=O,"inconclusive: 2.82 µM [inhibitor, partial curve, poor fit]",
COc1ccc2c(c1)c(N1CCCC1=O)c(C(=O)Nc1ccccc1C(F)(F)F)n2C,"inconclusive: 7.08 µM [inhibitor, single point]",
COc1ccc(C2=NC(c3ccncc3)=Nc3ccc(OC)cc3N2)cc1,"inconclusive: 39.8 µM [inhibitor, partial curve, poor fit]",
O=C(CCNC(=O)c1ccc([N+](=O)[O-])cc1)Nc1ccc(F)c(F)c1F,inactive,
O=C(NCc1nc2cccnc2n1Cc1ccc(F)cc1)c1ccccc1C(F)(F)F,inactive,
CCCCNC(=O)CCC(=O)Nc1ccc2nc(N3CCN(C)CC3)cc(C)c2c1,inactive,
CCN(CC)CCN(C(=O)Cn1nnc(-c2ccc(C)o2)n1)C(C(=O)NC(C)(C)C)c1cccs1 (stereo not drawn),"inconclusive: 89.1 µM [inhibitor, partial curve, poor fit]",
CCOc1ccc(NC(=O)Cn2nc(-c3ccncc3)ccc2=O)cc1,inactive,
CCN(CC)c1ccc(NC(=O)CNCc2ccccc2Cl)c(C)c1,active: 35.5 µM,
Cc1c(C(=O)Nc2ccncc2)sc2nc(-c3ccc(F)cc3)cn12,active: 39.8 µM,
COC(=O)/C(=N\Nc1ccc(Cl)cc1)Sc1nnc(-c2ccc(OC)cc2)n1C,active: 3.16 µM,
COc1ccc2nc(NC(=O)c3cc(=O)c4ccccc4o3)sc2c1,inactive,
Cc1cccc(NC(=S)NCc2cccn2C)c1,"inconclusive: 56.2 µM [inhibitor, partial curve, poor fit]",
C=CCSc1nc(N)c(C(=O)Nc2ccccc2OC)cc1C(=O)Nc1ccccc1,"inconclusive: 39.8 µM [inhibitor, partial curve]",
COc1ccccc1CNCCSc1nnnn1C,inactive,
COc1cc2c(cc1OC)CN(C(=O)CSc1nc(N)c(C#N)cc1C#N)CC2,,inconclusive: -102% [inhibitor]
CCOc1ccccc1C(=O)NCCc1cnc[nH]1,"inconclusive: 79.4 µM [inhibitor, single point]",
Cc1occc1C(=O)Nc1cccc(C(=O)NCc2ccccc2)c1,"inconclusive: 31.6 µM [inhibitor, partial curve, poor fit]",
CCOc1cc(NC(=S)NCC2CCCO2)c(OCC)cc1NC(=O)CC(C)C (stereo not drawn),"inconclusive: 79.4 µM [inhibitor, partial curve, poor fit]",
COc1cccc(C(O)c2nccn2Cc2ccccc2)c1OC (stereo not drawn),"inconclusive: 100 µM [inhibitor, single point]",
Cc1ccc(/C=N/Nc2nc(C)cc(C)n2)cc1,"inconclusive: 44.7 µM [inhibitor, partial curve]",
CCOC(=O)/C=C/C(=O)Nc1cc(S(=O)(=O)Nc2ccc(OC)cc2)ccc1N1CCOCC1,active: 44.7 µM,
O=C(CSc1nc(C2CC2)nc2ccccc12)NCc1ccc2c(c1)OCO2,"inconclusive: 79.4 µM [inhibitor, partial curve, poor fit]",
O=c1[nH]c2ccccc2nc1Cc1ccc([N+](=O)[O-])cc1,active: 50.1 µM,
O=C(CCN1CCCCC1)N/N=C/c1c[nH]c2ccccc12,"inconclusive: 50.1 µM [inhibitor, partial curve, poor fit]",

Compound,Potency,"activity, negative = inhibition"
Cc1ccccc1NC(=O)CSc1nc2[nH]c(=O)cc(O)c2s1,"inconclusive: 79.4 µM [inhibitor, single point]",
O=C(CC1SC(=Nc2ccccc2)N(Cc2ccccn2)C1=O)Nc1ccc(Br)cc1 (stereo not drawn),"inconclusive: 39.8 µM [inhibitor, partial curve, poor fit]",
CCc1ccc(-c2[nH]nc3nc(-c4ccc(OC)cc4)cc(C(=O)NCCc4ccc(OC)c(OC)c4)c23)cc1,inactive,
NCCCC[C@@H]1NC(=O)c2cc([N+](=O)[O-])cc(F)c2NCCCC[C@@H](C(N)=O)NC(=O)[C@H](CCC(N)=O)NC1=O,"inconclusive: 89.1 µM [inhibitor, single point]",
O=C(CCc1nc2ccccc2c(=O)[nH]1)OCc1nnc(-c2ccccc2)o1,"inconclusive: 31.6 µM [inhibitor, single point]",
Cc1cccc(OCC(O)CN2CCN(CCN3C(=O)c4cccc5cccc(c45)C3=O)CC2)c1C (stereo not drawn),"inconclusive: 28.2 µM [inhibitor, full curve, poor fit]",
CCCCOCC1CC(CC#CCN2CCCCC2)C(=O)O1 (stereo not drawn),active: 10 µM,
CC1(C)CC(C)(c2ccc(O)cc2O)N(c2cccc(Cl)c2)C(=S)N1 (stereo not drawn),"inconclusive: 20 µM [inhibitor, single point]",
CCOC(=O)c1cc(CC)sc1NC(=O)COC(=O)c1ccccn1,"inconclusive: 56.2 µM [inhibitor, partial curve, poor fit]",
O=C(c1cc(C(F)(F)F)cc(C(F)(F)F)c1)N1CCC[C@@]2(CCN(c3ccncc3)C2)C1,,inactive: 3.48% [at 12.7 µM]
COc1ccc(C(=O)NCC2(N3CCN(C)CC3)CCCCC2)cc1,inactive,
COc1cc(/C=C(/C(=O)O)c2ccc(-c3ccccc3)cc2)cc(OC)c1OC,inactive,
COc1cc(CNC(C)(C)CO)ccc1OCC(=O)NC(C)(C)C,inactive,
CCC(C)NC(=O)c1ccc2c(=O)n3c(nc2c1)CCCCC3 (stereo not drawn),"inconclusive: 39.8 µM [inhibitor, partial curve, poor fit]",
CCOC(=O)CNc1nnc(SCC(=O)OCC)[nH]c1=O,active: 22.4 µM,
Cc1cc(-c2csc(N)n2)c(C)n1Cc1ccco1,active: 17.8 µM,
O=[N+]([O-])c1ccc(Sc2n[nH]c(-c3ccccc3)n2)nc1,"inconclusive: 39.8 µM [inhibitor, single point]",
COC(=O)Nc1ccc(S(=O)(=O)N2CCC(C(=O)N3CCC(C)CC3)CC2)cc1,inactive,
CCCCOc1ccc2c(c1)C(=O)c1cc(O)ccc1-2,active: 31.6 µM,
CCc1nnc(NC(=O)CSc2nnc(Cc3ccccc3)n2Cc2ccccc2)s1,"inconclusive: 1.78 µM [inhibitor, full curve, poor fit]",
CCn1c(=O)c(=O)n(CC)c2cc(N3CCCCC3)c(NC(=O)c3cccc(F)c3)cc21,inactive,
COc1ccc(C(=O)COC(=O)c2c(-c3ccccc3)noc2C)c(OC)c1,"inconclusive: 89.1 µM [inhibitor, single point]",
COc1cc(C(=O)CSc2nnc(-c3ccc(O)cc3)n2CC2CCCO2)ccc1NC(C)=O (stereo not drawn),inactive,
